Laboratory results taken from the antibiotic and cytotoxicity screens of Wong et al. (2023).
This is one part of the list.

Each molecule was assayed on S. aureus RN4220 (assay: growth inhibition call (relative growth <= 0.2)). Conditions: 50 µM.

Growth inhibition call, inactive:
CC(C)NC(=O)Nc1ccc2c(c1)C(=O)N([C@@H](C)CO)C[C@H](C)[C@@H](CN(C)Cc1ccccc1)OCCCC[C@@H](C)O2
C[C@@H]1CCCCO[C@@H](CN(C)C(=O)c2ccccc2)[C@@H](C)CN([C@H](C)CO)C(=O)c2cc(NS(=O)(=O)c3ccc(F)cc3)ccc2O1
C[C@@H]1CN([C@@H](C)CO)C(=O)Cc2cc(NS(=O)(=O)c3ccc(Cl)cc3)ccc2O[C@H]1CN(C)S(C)(=O)=O
CN(C)CCN1[C@]2(CCN(C(=O)N3CCOCC3)C2)c2ccccc2S1(=O)=O
Cc1noc(C)c1S(=O)(=O)Nc1cccc2c1O[C@H](CN(C)C(=O)Nc1ccccc1)[C@H](C)CN([C@@H](C)CO)C2=O
COc1ccc2c3c([nH]c2c1)[C@@H](CO)N(C[C@]13CN(CC2CCOCC2)C1)C(=O)Nc1c(noc1C)C
COc1ccc(S(=O)(=O)Nc2ccc3c(c2)C(=O)N([C@H](C)CO)C[C@@H](C)[C@H](CN(C)Cc2ccc4c(c2)OCO4)OCCCC[C@@H](C)O3)cc1
Cc1ccc(S(=O)(=O)N(C)C[C@H]2OCCCC[C@@H](C)Oc3ccc(NC(=O)Nc4ccccc4)cc3C(=O)N([C@H](C)CO)C[C@@H]2C)cc1
CC(C)NC(=O)Nc1ccc2c(c1)CC(=O)N([C@H](C)CO)C[C@H](C)[C@@H](CN(C)S(=O)(=O)c1ccccc1)O2
C[C@H](CO)N1C[C@H](C)[C@@H](CN(C)C(=O)Nc2ccccc2)Oc2cc(C#CC3(O)CCCC3)ccc2S1(=O)=O
O=C(C[C@@H]1C=C[C@H](NC(=O)CN2CCOCC2)[C@H](CO)O1)NC1CCC1
CCCN(C)C[C@@H]1Oc2cc(C#Cc3ccc(OC)cc3)ccc2S(=O)(=O)N([C@H](C)CO)C[C@@H]1C
COCCC(=O)N1CCC2(CC1)COC2
CO[C@H]1CN(C)C(=O)c2ccc(NC(=O)c3ccc(F)cc3)cc2OC[C@@H](C)N(C(=O)CN(C)C)C[C@H]1C
C[C@@H]1CCCCO[C@H](CN(C)Cc2ccc3c(c2)OCO3)[C@@H](C)CN([C@H](C)CO)C(=O)c2cc(NS(=O)(=O)c3ccc(F)cc3)ccc2O1
C[C@H](CO)N1C[C@H](C)[C@H](CN(C)Cc2ccc(-c3ccccc3)cc2)OCc2ccccc2-c2ccccc2C1=O
O=C(C[C@H]1CC[C@H]2[C@@H](COC[C@H](O)CN2Cc2cccc(C(F)(F)F)c2)O1)NCCc1ccncc1
COc1ccc(CCC(=O)c2c(O)cc(O[C@@H]3O[C@H](CO)[C@@H](O)[C@H](O)[C@H]3O[C@@H]3O[C@@H](C)[C@H](O)[C@@H](O)[C@H]3O)cc2O)cc1O
COc1ccc(S(=O)(=O)N(C)C[C@@H]2Oc3ccc(NS(=O)(=O)c4c(C)noc4C)cc3CC(=O)N([C@H](C)CO)C[C@H]2C)cc1
COc1ccccc1C#Cc1ccc2c(c1)O[C@@H](CN(C)C(C)=O)[C@H](C)CN([C@@H](C)CO)S2(=O)=O
C[C@@H]1CCCCO[C@H](CN(C)Cc2ccc3c(c2)OCO3)[C@@H](C)CN([C@H](C)CO)C(=O)c2cc(NC(=O)C3CCCCC3)ccc2O1
Cc1ccc(S(=O)(=O)N[C@@H]2C=C[C@@H](CC(=O)NCCN3CCCCC3)O[C@H]2CO)cc1
CCCNC(=O)Nc1ccc2c(c1)C(=O)N(C)C[C@@H](OC)[C@@H](C)CN(Cc1ccc(-c3ccccn3)cc1)[C@H](C)CO2
C[C@@H]1CN([C@@H](C)CO)S(=O)(=O)c2ccc(-c3ccc(C(=O)N(C)C)cc3)cc2O[C@@H]1CN(C)C(=O)C1CCOCC1
CC(C)NC(=O)Nc1ccc2c(c1)C(=O)N([C@H](C)CO)C[C@H](C)[C@H](CN(C)C(=O)Nc1cccc3ccccc13)OCCCC[C@@H](C)O2
COc1ccc(NC(=O)Nc2ccc3c(c2)C(=O)N([C@H](C)CO)C[C@@H](C)[C@@H](CN(C)S(=O)(=O)c2ccc(C)cc2)OCCCC[C@H](C)O3)cc1
Cc1noc(C)c1NC(=O)N(C)C[C@@H]1OCCCC[C@@H](C)Oc2ccc(NC(=O)Nc3ccccc3)cc2C(=O)N([C@@H](C)CO)C[C@H]1C
C[C@@H]1CN([C@H](C)CO)S(=O)(=O)c2ccc(C#Cc3ccncc3)cc2O[C@@H]1CN(C)C(=O)C1CCCCC1
CNC[C@@H](O)c1ccc(O)c(O)c1
C[C@@H]1CN([C@@H](C)CO)C(=O)c2cc(NC(=O)CCC(F)(F)F)ccc2O[C@@H](C)CCCCO[C@H]1CN(C)C(=O)Nc1ccccc1
COc1ccc(S(=O)(=O)N(C)C[C@@H]2Oc3c(NC(=O)C4CC4)cccc3C(=O)N([C@@H](C)CO)C[C@@H]2C)cc1
C[C@H](CO)N1C[C@H](C)[C@H](CN(C)S(C)(=O)=O)OCc2cnnn2CCCC1=O
N#Cc1ccc(NCCNC(=N)N)nc1
C[C@@H]1CN([C@H](C)CO)C(=O)c2cccc(NC(=O)CCCCCC(=O)Nc3ccccc3N)c2O[C@H]1CN(C)C(=O)Nc1ccccc1
C[C@@H]1CN([C@H](C)CO)C(=O)c2cc(NS(=O)(=O)c3ccc(F)cc3)ccc2O[C@H]1CN(C)CC1CC1
COc1ccc(NC(=O)Nc2cccc3c2O[C@@H](CN(C)Cc2ccc(-c4ccccc4)cc2)[C@@H](C)CN([C@@H](C)CO)C3=O)cc1
C[C@@H]1CN([C@H](C)CO)C(=O)c2cc(C#CCN(C)C)cnc2O[C@@H]1CN(C)Cc1cccc(C(=O)O)c1
C1CC2(CCN1)OCCS2
O[C@@H]1Cc2ccccc2[C@H]1O
C[C@@H]1CCCCO[C@H](CN(C)C(=O)Nc2ccccc2)[C@@H](C)CN([C@H](C)CO)C(=O)c2cc(NC(=O)CCC(F)(F)F)ccc2O1
